Results published in the supplement of paper PMC4166925.
± gives the standard deviation of the averaged measurements. In all, about 33,000 sequences were measured (“E-score (dimensionless, -0.5 to 0.5)”: median about -0.049, highest 2% from about 0.37 on). The list shows a part of the results.

tested on: T1, PmTbr T-box DNA-binding domain (GST fusion); assay: PBM E-score of 8-mer (E-score (dimensionless, -0.5 to 0.5)); Tbr is Tbrain of the sea star Patiria miniata (Pm) or the sea urchin Strongylocentrotus purpuratus (Sp); higher = stronger binding preference; most listed sequences are background and not binding sites; details: the construct has about 5 more residues each side
T1 sequence: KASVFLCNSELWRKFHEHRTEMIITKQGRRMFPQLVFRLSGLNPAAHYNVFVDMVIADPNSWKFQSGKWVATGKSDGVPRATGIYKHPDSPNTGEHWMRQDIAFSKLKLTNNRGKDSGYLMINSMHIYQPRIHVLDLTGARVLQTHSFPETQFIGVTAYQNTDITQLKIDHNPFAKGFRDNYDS
How it was run: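 Primer extension turned Universal Agilent oligonucleotide arrays double-stranded. They were incubated with 200 nM protein in PBS (pH 7.5); the protein was a GST-fused Tbr T-box DNA-binding domain expressed in BL21 E. coli at 20 °C and purified on glutathione. Every ungapped 8-mer was scored from the scanned, quantified probe intensities, and the Universal PBM Analysis Suite gave each an enrichment E-score averaged over duplicate arrays.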

| Sequence | PBM E-score of 8-mer |
| --- | --- |
| CTAACGGC | 0.128 ± 0.029 |
| CATTCGCG | 0.353 ± 0.004 |
| CGACGGGC | -0.0616 ± 0.0087 |
| AGTTGGCA | 0.267 ± 0.018 |
| ACTTCACT | 0.147 ± 0.0065 |
| AATAAGGA | -0.198 ± 0.017 |
| ATTTAAAG | -0.164 ± 0.12 |
| GTGATAGA | 0.297 ± 0.042 |
| GCAATGAA | -0.0272 ± 0.033 |
| GCGGAAGC | 0.0112 ± 0.014 |
| CTGGGACC | -0.214 ± 0.053 |
| CCGCGATC | 0.0852 ± 0.065 |
| CTGCTCAA | -0.0839 ± 0.036 |
| AACCATAG | -0.0343 ± 0.06 |
| GGCAAGCA | -0.14 ± 0.043 |
| ACTGTGAC | 0.239 ± 0.026 |
| CATTCCAC | -0.091 ± 0.049 |
| GGCTTAGA | -0.242 ± 0.021 |
| AACTCCAG | -0.286 ± 0.01 |
| CTTAGTTA | -0.165 ± 0.021 |
| ACAGTCGG | 0.00435 ± 0.025 |
| GGATGACA | 0.0332 ± 0.031 |

| Sequence | PBM E-score of 8-mer |
| --- | --- |
| ATCCAAGG | 0.0236 ± 0.0032 |
| TAACACGA | 0.242 ± 0.0091 |
| AGTCCTAA | -0.169 ± 0.073 |
| TGGACTAA | -0.217 ± 0.0037 |
| ACACACGT | 0.305 ± 0.017 |
| AGCAAAAA | -0.0388 ± 0.032 |
| CTTCCGTA | -0.178 ± 0.11 |
| ACGTAATC | -0.169 ± 0.0087 |
| ACTATCGG | -0.166 ± 0.015 |
| CAATGTCA | 0.19 ± 0.024 |
| TCACGGCA | 0.155 ± 0.034 |
| CCGAGGCG | 0.307 ± 0.0046 |
| ACTCTGTG | -0.0509 ± 0.051 |
| CCACATCA | 0.199 ± 0.019 |
| ATGGATTC | -0.129 ± 0.024 |
| AACCCCGG | -0.132 ± 0.086 |
| ACCCCTGA | -0.126 ± 0.0081 |
| CGGTGCCC | -0.215 ± 0.034 |
| AATTGAGT | -0.0332 ± 0.059 |
| CTGTAACA | 0.326 ± 0.0042 |
| AAAAAAGT | -0.0899 ± 0.094 |
| AAGGTCAT | -0.255 ± 0.0088 |

| Sequence | PBM E-score of 8-mer |
| --- | --- |
| GAATGGCC | 0.00925 ± 0.026 |
| CTCCGGTC | -0.096 ± 0.025 |
| CATCGAGC | -0.143 ± 0.013 |
| CAGTCGTC | -0.0961 ± 0.059 |
| CCTCCTGA | -0.0506 ± 0.054 |
| CTACTTAA | 0.00387 ± 0.015 |
| CATTCAAG | 0.0462 ± 0.037 |
| CCTCCGTA | -0.112 ± 0.018 |
| AGTCCTAG | -0.0285 ± 0.042 |
| GAGTATGC | -0.212 ± 0.015 |
| GGCTCACA | 0.0846 ± 0.0034 |
| GACACGTA | 0.317 ± 0.029 |
| AAGGACCG | -0.217 ± 0.026 |
| AGCGTCTC | -0.0521 ± 0.042 |
| CAGCGTAG | -0.185 ± 0.029 |
| CATGTCGG | -0.0209 ± 0.11 |
| ACTTGACC | -0.27 ± 0.06 |
| ACCGTGAC | 0.148 ± 0.073 |
| CGTGGTAC | -0.0769 ± 0.039 |
| AAAAATGG | -0.212 ± 0.15 |
| TCCATACA | -0.248 ± 0.0049 |
| TATTTCCA | -0.134 ± 0.027 |

| Sequence | PBM E-score of 8-mer |
| --- | --- |
| AGGAGAGC | -0.282 ± 0.056 |
| CTATAGCA | -0.00492 ± 0.045 |
| AAGCGTTG | 0.196 ± 0.0021 |
| CGGAGCCC | -0.276 ± 0.086 |
| AGAAGACA | 0.0278 ± 0.0013 |
| ATACAGTA | -0.14 ± 0.067 |
| CCGGGCAG | -0.0095 ± 0.03 |
| CAGCCGCG | -0.0288 ± 0.076 |
| AGACATAC | -0.0914 ± 0.01 |
| AGAGGCAT | -0.313 ± 0.018 |
| CCAGCAAC | 0.141 ± 0.0096 |
| CGGATTTA | -0.0413 ± 0.027 |
| AGCGTCCG | -0.0687 ± 0.02 |
| AGTGTGAA | 0.48836 ± 0.00035 |
| GAATGTTA | -0.0965 ± 0.064 |
| AAAGAGAC | -0.0189 ± 0.0068 |
| ATGCATCG | -0.207 ± 0.081 |
| ACGGCGAC | -0.00352 ± 0.027 |
| AATTTAGG | -0.196 ± 0.066 |
| AAGCATAA | -0.129 ± 0.019 |
